Laboratory results taken from a collection of fitness landscapes (doi:10.1016/j.celrep.2020.107928).
In all, about 81,000 sequences were measured (“one-hybrid fitness for binding NBS DNA”: median about -0.1, highest 2% from about 0.36 on). Some of the results follow.

B1: Caulobacter ParB omega fusion; a variant is named by its letters at X, in order, B8GW30 (parent)
chain: MESVVVGEPGMSEGRRGLGRGLSALLGEVDAAPAQAPGEQLGGSREAPIEILQRNPDQPRRTFREEDLEDLSNSIREKGVLQPILVRPSPDTAGEYQIVAGERAWRAAQRAGLKTVPIMVRELDDLAVLEIGIIENVQRADLNVLEEALSYKVLMEKFERTQENIAQTIGKSXSHVANXMRLLXLPDEVQSYLVSGELTAXHARAIAAAADPVALAKQIIEGGLSVRETEALARKAPNLSAGKSKGGRPPRVKDTDTQALESDLSSVLGLDVSIDHRGSTGTLTITYATLEQLDDLCNRLTRGI

Variants of: B1
Test: one-hybrid fitness for binding NBS DNA (the Noc-binding site; scaled: cognate 1, non-cognate 0); higher = stronger binding
Conditions: with NBS DNA site
Procedure, shortened: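 The reporter was HIS3, with the binding site 19 bp from the promoter, in E. coli USO used for bacterial one-hybrid selection of Caulobacter ParB libraries with four specificity codons randomised. Growth was on M9 lacking histidine, with 0.1 mM IPTG and 5 mM 3-AT, for 48 hours at 37°C. Illumina sequencing covered plasmids before and after selection; three replicate libraries were pooled and variants with under 10 reads dropped. A fitness score is the log change in variant-to-wild-type read ratio, rescaled to the cognate and non-cognate references.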

Variant	one-hybrid fitness for binding NBS DNA
MTTW	≤ 0.2
GAGS	≤ 0.2
LQMS	≤ 0.2
KQWS	≤ 0.2
MNHY	≤ 0.2
KHCS	≤ 0.2
QYST	0.413
QTWH	≤ 0.2
PHKQ	≤ 0.2
RASS	0.421
AHWR	≤ 0.2
KVGA	≤ 0.2
QNQP	≤ 0.2
LHSG	≤ 0.2
LHFG	≤ 0.2
DYYR	≤ 0.2
QTAF	≤ 0.2
WKMR	≤ 0.2
NSTS	≤ 0.2
IQNF	≤ 0.2
YVYV	≤ 0.2
TISY	≤ 0.2
VAYM	≤ 0.2
YALV	≤ 0.2

Variant	one-hybrid fitness for binding NBS DNA
ACRK	≤ 0.2
CQVT	≤ 0.2
GAER	≤ 0.2
PRCT	≤ 0.2
CTSN	≤ 0.2
SQAC	≤ 0.2
LRIR	≤ 0.2
EGTK	≤ 0.2
KNVT	≤ 0.2
RYYS	0.371
RVAC	≤ 0.2
DDFT	≤ 0.2
AVST	≤ 0.2
RMGP	≤ 0.2
LYVM	≤ 0.2
RHTC	≤ 0.2
QKIY	≤ 0.2
KRWL	≤ 0.2
QLCV	≤ 0.2
GINK	≤ 0.2
PVQR	≤ 0.2
QTWP	≤ 0.2
DQLY	≤ 0.2
STPH	≤ 0.2

Variant	one-hybrid fitness for binding NBS DNA
RMKA	0.338
PCQY	≤ 0.2
QITV	0.237
YLHR	≤ 0.2
EARL	≤ 0.2
TWGG	≤ 0.2
AMAP	≤ 0.2
NMRT	≤ 0.2
PNPA	≤ 0.2
THVS	≤ 0.2
MPAS	≤ 0.2
RFHC	≤ 0.2
YAHG	≤ 0.2
YAYC	≤ 0.2
CRDG	≤ 0.2
GQCT	≤ 0.2
MYSA	≤ 0.2
PHDT	≤ 0.2
RKTM	≤ 0.2
CLHR	≤ 0.2
ETMM	≤ 0.2
MDEY	≤ 0.2
SDTG	≤ 0.2
FWAC	≤ 0.2

Variant	one-hybrid fitness for binding NBS DNA
TSVT	≤ 0.2
APVS	≤ 0.2
YVCG	≤ 0.2
CVWR	≤ 0.2
QYGD	≤ 0.2
RNPT	≤ 0.2
YTCS	≤ 0.2
RKPA	≤ 0.2
ETQT	≤ 0.2
HRDL	≤ 0.2
NLTG	≤ 0.2
PPYG	≤ 0.2
MTLK	≤ 0.2
LDTT	≤ 0.2
HICL	≤ 0.2
QHWD	≤ 0.2
GLWV	≤ 0.2
PTCM	≤ 0.2
ASTE	≤ 0.2
PTHW	≤ 0.2
SRNA	≤ 0.2
FMVC	≤ 0.2
TMHT	≤ 0.2
PTPA	≤ 0.2

Variant	one-hybrid fitness for binding NBS DNA
WCTT	≤ 0.2
GHLC	≤ 0.2
KAGR	≤ 0.2
MIHT	≤ 0.2
VISM	≤ 0.2
RHNP	≤ 0.2
GPLA	≤ 0.2
LHFI	≤ 0.2
IWRS	≤ 0.2
VHIS	≤ 0.2
VLLR	≤ 0.2
VHMW	≤ 0.2
RFNQ	≤ 0.2
PCFM	≤ 0.2
CIMK	≤ 0.2
TYYL	≤ 0.2
LSAN	≤ 0.2
QRCR	0.981
SFMW	≤ 0.2
IQPS	≤ 0.2
VDPI	≤ 0.2
RTWC	≤ 0.2
TLLP	≤ 0.2
YYST	≤ 0.2

Variant	one-hybrid fitness for binding NBS DNA
IRGS	≤ 0.2
SSAI	≤ 0.2
TGRV	≤ 0.2
HMPV	≤ 0.2
GWSD	≤ 0.2
ESNR	≤ 0.2
LVRN	≤ 0.2
SPQN	≤ 0.2
DYSK	≤ 0.2
LPKC	≤ 0.2
CLLT	≤ 0.2
QGTM	≤ 0.2
IRTL	≤ 0.2
AWER	≤ 0.2
AGVR	≤ 0.2
RFFP	≤ 0.2
LWLV	≤ 0.2
TQSW	≤ 0.2
TFAN	≤ 0.2
RNLN	≤ 0.2
MLLL	≤ 0.2
QEMS	≤ 0.2
CQSR	≤ 0.2
PVIA	≤ 0.2

Variant	one-hybrid fitness for binding NBS DNA
PFLV	≤ 0.2
EVVT	≤ 0.2
WADL	≤ 0.2
QWPD	≤ 0.2
LVDM	≤ 0.2
WRLS	≤ 0.2
IRSQ	≤ 0.2
PVMQ	≤ 0.2
GGSW	≤ 0.2
LVTN	≤ 0.2
HNMS	≤ 0.2
NKNA	≤ 0.2
MHKM	≤ 0.2
GKLA	≤ 0.2
MSSG	≤ 0.2
HMTR	≤ 0.2
RWAP	≤ 0.2
PITM	≤ 0.2
FNRC	≤ 0.2
WSRM	≤ 0.2
GMTC	≤ 0.2
WTDG	≤ 0.2
IFGS	≤ 0.2
CRAY	≤ 0.2

Variant	one-hybrid fitness for binding NBS DNA
PSGG	≤ 0.2
QNVV	≤ 0.2
QQHR	0.683
RKSG	≤ 0.2
RTRY	0.38
VGTG	≤ 0.2
GPED	≤ 0.2
PTCC	≤ 0.2
SDPR	≤ 0.2
QMVF	≤ 0.2
VVRY	≤ 0.2
RVMQ	≤ 0.2
CIVC	≤ 0.2
QLRY	0.451
IYQL	≤ 0.2
NWYS	≤ 0.2
CMHF	≤ 0.2
LDIW	≤ 0.2
WDER	≤ 0.2
PLHF	≤ 0.2
KGGA	≤ 0.2
VEDA	≤ 0.2
LHPG	≤ 0.2
YSQN	≤ 0.2

Variant	one-hybrid fitness for binding NBS DNA
MPPM	≤ 0.2
GEKS	≤ 0.2
RDKS	≤ 0.2
KMQR	≤ 0.2
RYVM	≤ 0.2
QMED	≤ 0.2
RQKP	≤ 0.2
QWGT	≤ 0.2
ETSS	≤ 0.2
RRGD	≤ 0.2
QVVR	0.285
VMYL	≤ 0.2
PFEC	≤ 0.2
IQRR	0.241
AQIR	≤ 0.2
EDKV	≤ 0.2
ASLG	≤ 0.2
QPCI	≤ 0.2
SKPP	≤ 0.2
FHPP	≤ 0.2
HHVD	≤ 0.2
RLFE	≤ 0.2
HCSS	≤ 0.2
YKKG	≤ 0.2

Variant	one-hybrid fitness for binding NBS DNA
SSQE	≤ 0.2
EKET	≤ 0.2
VGGF	≤ 0.2
HSKS	≤ 0.2
AFFG	≤ 0.2
ITRR	0.301
AAKT	≤ 0.2
YCHA	≤ 0.2
DSAS	≤ 0.2
TLYT	≤ 0.2
NEVP	≤ 0.2
AQHR	≤ 0.2
REKF	≤ 0.2
MCTV	≤ 0.2
VCMR	≤ 0.2
LSNT	≤ 0.2
TLLM	≤ 0.2
PFDT	≤ 0.2
QASF	≤ 0.2
LVNR	≤ 0.2
LPQR	≤ 0.2
VVKQ	≤ 0.2
SIKP	≤ 0.2
IHSN	≤ 0.2

Variant	one-hybrid fitness for binding NBS DNA
WVWC	≤ 0.2
RTCV	≤ 0.2
HTWN	≤ 0.2
SLFC	≤ 0.2
RSVG	≤ 0.2
TTLD	≤ 0.2
SPIL	≤ 0.2
NKRS	≤ 0.2
FVST	≤ 0.2
HHSY	≤ 0.2
LWPF	≤ 0.2
TRLC	≤ 0.2
SGPY	≤ 0.2
LLEF	≤ 0.2
EVTW	≤ 0.2
HNTY	≤ 0.2
GIRE	≤ 0.2
DTLR	≤ 0.2
RMSM	≤ 0.2
HCGC	≤ 0.2
QACD	≤ 0.2
IQCR	≤ 0.2
VEER	≤ 0.2
EGKT	≤ 0.2

Variant	one-hybrid fitness for binding NBS DNA
DPLC	≤ 0.2
GMLK	≤ 0.2
HIPG	≤ 0.2
SVNT	≤ 0.2
ECST	≤ 0.2
RYMW	≤ 0.2
RRGW	≤ 0.2
NSSY	≤ 0.2
TIRK	≤ 0.2
GGER	≤ 0.2
TPNY	≤ 0.2
YIGD	≤ 0.2
QDHS	≤ 0.2
LAIT	≤ 0.2
RMHM	≤ 0.2
CGEE	≤ 0.2
WRMG	≤ 0.2
SGGG	≤ 0.2
RWVC	≤ 0.2
DARA	≤ 0.2
IYWI	≤ 0.2
PYRH	≤ 0.2
SKSL	≤ 0.2
RWSG	≤ 0.2

Variant	one-hybrid fitness for binding NBS DNA
RYFA	≤ 0.2
RQSS	0.446
IPPL	≤ 0.2
VLHL	≤ 0.2
DSHT	≤ 0.2
ACGI	≤ 0.2
AEFL	≤ 0.2
VQKR	0.293
SYSP	≤ 0.2
LMNS	≤ 0.2
HTQE	≤ 0.2
SPMF	≤ 0.2
NSYN	≤ 0.2
FTRC	≤ 0.2
RAIY	≤ 0.2
PRYW	≤ 0.2
AYML	≤ 0.2
LWVW	≤ 0.2
